Measurements as given in article PMC6078952.
These are yes or no findings as the source states them, for the method shown. Some binding calls cover weakened binding; strength is not graded here.

Protein sequences, listed by entry. Tags and fused reporters are not part of them. Lines headed by an entry give the natural chain unless they say otherwise; changes in a name come on top. Chains listed by the source or under a name are the forms on record and can include a tag or linker. Residues count along the entry.
UniProt P51884, residues 19-338: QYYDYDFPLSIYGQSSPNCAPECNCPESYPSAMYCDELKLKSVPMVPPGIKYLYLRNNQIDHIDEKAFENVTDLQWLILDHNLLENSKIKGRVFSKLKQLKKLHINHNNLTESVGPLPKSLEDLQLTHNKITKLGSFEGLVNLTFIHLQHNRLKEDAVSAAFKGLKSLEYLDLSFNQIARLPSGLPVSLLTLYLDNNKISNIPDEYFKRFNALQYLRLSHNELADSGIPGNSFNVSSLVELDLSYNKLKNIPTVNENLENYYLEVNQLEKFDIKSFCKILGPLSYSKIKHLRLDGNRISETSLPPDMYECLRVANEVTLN
UniProt Q15848, residues 19-244: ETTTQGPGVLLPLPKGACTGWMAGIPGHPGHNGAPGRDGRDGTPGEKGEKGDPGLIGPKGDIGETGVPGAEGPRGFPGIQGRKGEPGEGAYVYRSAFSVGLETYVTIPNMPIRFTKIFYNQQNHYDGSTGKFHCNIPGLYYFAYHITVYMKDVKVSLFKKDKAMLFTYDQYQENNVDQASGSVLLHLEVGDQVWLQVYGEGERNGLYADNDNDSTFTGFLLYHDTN
UniProt P20908: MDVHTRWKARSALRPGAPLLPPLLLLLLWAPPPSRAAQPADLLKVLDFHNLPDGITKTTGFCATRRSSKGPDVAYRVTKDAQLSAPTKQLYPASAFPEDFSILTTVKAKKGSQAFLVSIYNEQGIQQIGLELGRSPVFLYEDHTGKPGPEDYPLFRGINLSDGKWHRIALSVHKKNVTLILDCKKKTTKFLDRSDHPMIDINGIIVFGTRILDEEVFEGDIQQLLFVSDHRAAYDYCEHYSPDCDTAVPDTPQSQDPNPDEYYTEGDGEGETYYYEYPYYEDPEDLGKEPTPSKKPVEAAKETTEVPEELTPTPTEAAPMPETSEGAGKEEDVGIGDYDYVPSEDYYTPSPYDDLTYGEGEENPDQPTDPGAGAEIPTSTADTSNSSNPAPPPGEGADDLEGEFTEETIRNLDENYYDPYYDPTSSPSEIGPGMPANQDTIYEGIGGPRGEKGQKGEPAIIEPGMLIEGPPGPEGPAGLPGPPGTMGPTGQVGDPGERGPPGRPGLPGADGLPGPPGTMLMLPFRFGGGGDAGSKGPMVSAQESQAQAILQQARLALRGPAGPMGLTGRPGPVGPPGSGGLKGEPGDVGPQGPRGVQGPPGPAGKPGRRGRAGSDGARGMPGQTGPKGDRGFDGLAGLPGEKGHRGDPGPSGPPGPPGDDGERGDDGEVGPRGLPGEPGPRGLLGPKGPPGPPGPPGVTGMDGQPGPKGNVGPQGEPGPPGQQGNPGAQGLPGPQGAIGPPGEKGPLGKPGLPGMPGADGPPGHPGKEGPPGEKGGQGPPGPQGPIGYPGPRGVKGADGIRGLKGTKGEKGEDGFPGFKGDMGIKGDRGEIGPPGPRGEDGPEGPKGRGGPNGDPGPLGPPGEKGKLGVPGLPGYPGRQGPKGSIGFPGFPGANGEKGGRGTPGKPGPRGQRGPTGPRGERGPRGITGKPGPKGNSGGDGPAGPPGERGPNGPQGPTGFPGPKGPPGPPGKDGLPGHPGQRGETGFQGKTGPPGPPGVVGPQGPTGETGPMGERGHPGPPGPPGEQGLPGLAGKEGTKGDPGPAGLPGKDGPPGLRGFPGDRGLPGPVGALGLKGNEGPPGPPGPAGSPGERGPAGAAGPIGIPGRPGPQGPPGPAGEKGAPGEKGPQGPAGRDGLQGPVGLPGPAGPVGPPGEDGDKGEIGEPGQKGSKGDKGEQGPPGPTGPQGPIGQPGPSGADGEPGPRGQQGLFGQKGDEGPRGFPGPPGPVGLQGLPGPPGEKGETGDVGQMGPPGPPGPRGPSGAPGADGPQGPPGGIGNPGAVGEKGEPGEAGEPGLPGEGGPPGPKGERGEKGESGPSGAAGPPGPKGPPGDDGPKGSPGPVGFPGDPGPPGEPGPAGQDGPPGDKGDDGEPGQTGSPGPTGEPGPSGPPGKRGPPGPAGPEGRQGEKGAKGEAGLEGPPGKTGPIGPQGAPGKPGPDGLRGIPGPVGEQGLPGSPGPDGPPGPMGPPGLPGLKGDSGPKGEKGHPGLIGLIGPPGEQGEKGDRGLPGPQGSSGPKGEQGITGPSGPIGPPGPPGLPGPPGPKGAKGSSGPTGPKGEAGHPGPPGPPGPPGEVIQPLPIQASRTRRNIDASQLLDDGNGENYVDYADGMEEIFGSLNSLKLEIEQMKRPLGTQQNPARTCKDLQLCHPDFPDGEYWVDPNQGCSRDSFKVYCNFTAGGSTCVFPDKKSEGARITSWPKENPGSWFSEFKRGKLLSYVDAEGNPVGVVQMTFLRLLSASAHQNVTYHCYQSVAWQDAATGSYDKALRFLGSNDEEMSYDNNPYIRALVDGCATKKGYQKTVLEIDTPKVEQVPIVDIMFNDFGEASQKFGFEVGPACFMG
UniProt P39060, residues 1443-1754: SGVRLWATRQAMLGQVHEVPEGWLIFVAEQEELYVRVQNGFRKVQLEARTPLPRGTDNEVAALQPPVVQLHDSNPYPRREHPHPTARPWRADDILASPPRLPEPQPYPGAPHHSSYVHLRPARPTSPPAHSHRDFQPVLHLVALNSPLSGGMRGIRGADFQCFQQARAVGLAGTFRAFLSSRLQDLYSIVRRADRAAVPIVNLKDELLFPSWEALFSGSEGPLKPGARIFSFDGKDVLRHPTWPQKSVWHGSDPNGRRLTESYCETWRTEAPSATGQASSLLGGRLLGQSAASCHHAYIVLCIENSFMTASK
UniProt P02461, residues 154-1221: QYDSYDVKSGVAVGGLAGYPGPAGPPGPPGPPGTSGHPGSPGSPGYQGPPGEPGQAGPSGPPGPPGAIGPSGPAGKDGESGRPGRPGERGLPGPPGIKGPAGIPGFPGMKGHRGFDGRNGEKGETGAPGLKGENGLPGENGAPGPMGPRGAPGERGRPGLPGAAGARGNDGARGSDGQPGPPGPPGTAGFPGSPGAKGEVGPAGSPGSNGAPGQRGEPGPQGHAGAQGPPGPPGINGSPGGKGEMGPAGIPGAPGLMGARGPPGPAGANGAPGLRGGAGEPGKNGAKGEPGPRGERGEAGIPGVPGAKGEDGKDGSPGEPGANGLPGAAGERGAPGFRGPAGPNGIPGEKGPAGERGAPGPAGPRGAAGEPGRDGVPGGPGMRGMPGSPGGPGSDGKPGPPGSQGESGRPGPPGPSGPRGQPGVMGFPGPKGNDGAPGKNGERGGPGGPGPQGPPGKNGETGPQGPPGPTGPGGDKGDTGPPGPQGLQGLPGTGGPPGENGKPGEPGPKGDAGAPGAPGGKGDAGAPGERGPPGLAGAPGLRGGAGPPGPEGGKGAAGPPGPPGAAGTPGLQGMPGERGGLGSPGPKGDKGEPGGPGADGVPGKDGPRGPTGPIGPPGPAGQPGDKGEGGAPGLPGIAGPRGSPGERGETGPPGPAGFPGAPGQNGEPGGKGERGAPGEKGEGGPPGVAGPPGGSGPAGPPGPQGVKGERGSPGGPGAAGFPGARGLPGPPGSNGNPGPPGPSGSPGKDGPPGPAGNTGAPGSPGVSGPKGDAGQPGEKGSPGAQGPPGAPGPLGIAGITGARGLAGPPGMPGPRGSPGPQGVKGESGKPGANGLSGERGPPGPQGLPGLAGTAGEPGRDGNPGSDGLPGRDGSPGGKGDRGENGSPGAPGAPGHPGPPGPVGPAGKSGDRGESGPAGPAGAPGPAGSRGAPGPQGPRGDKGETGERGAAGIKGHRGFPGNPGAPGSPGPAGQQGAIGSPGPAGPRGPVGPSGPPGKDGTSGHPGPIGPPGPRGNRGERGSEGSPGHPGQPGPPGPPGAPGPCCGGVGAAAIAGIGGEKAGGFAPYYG
UniProt P07996, residues 19-1170: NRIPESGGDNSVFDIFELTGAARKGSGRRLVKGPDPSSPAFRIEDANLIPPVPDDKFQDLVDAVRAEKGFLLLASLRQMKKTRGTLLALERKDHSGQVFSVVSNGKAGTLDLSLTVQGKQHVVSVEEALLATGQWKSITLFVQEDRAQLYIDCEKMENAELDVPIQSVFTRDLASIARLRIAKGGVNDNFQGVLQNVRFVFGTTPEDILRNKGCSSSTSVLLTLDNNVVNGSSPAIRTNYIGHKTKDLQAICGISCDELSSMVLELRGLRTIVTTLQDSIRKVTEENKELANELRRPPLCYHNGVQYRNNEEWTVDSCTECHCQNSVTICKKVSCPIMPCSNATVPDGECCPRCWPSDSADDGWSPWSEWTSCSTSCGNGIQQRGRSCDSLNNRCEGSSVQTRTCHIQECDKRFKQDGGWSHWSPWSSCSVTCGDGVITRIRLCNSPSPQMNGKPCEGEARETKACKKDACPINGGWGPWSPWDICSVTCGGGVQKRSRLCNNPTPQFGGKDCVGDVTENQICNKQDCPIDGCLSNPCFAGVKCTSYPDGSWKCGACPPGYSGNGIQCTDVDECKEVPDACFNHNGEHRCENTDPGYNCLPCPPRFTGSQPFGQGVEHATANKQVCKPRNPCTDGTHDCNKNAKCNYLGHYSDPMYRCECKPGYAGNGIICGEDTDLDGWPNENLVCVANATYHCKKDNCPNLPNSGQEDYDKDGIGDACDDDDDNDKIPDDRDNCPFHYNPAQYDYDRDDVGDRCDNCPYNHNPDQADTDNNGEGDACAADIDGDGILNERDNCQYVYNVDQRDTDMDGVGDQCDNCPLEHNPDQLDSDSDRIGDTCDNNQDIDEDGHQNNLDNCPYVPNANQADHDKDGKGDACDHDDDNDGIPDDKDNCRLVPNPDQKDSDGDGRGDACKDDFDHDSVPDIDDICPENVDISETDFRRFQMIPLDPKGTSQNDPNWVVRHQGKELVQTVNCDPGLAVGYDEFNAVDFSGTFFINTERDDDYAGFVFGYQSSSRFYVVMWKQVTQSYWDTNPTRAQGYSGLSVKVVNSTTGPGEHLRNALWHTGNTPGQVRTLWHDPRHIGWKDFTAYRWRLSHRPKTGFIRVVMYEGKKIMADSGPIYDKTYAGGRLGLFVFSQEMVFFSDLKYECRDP
UniProt Q9UEW3, residues 79-520: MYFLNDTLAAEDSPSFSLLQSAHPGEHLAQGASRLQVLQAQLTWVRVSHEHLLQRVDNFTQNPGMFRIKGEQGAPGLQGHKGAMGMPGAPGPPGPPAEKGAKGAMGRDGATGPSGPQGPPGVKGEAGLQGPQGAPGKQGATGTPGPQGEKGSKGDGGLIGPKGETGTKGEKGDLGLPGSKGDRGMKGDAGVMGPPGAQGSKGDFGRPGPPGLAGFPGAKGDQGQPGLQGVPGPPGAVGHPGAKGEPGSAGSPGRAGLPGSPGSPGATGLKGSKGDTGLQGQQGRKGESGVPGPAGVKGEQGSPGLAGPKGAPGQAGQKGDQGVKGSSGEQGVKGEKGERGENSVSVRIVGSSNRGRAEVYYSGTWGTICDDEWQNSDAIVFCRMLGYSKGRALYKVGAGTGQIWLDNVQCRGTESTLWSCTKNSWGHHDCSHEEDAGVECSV
Lysyl oxidase propeptide (LOX-PP) (Pro24Leu) (P28300, form named): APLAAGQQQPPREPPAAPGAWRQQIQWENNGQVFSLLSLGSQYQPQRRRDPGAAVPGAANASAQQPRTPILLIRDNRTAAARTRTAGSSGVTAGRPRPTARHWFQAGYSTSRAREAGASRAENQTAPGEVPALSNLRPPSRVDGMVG

Legend:
Test in all cases: SPR; SPR imaging (SPRi, Biacore Flexchip): partners spotted in triplicate on a bare gold chip at 0.06 to 1 mg/ml; purified LOX-PP injected at 2 µM and recirculated for 20 min; PBS with 0.05% Tween 20, 25 °C; both purified
Lumican = Lumican (UniProt P51884)
Syndecan-1 ectodomain = biological target: T1, Syndecan-1 ectodomain (UniProt P18827)
T1 sequence: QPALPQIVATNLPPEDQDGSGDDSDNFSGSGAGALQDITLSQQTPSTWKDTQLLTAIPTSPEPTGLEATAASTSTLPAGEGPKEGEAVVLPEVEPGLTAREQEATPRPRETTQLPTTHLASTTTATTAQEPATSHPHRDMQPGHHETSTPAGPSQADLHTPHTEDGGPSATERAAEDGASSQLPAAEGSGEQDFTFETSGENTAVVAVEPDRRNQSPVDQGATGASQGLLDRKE

Adiponectin = Adiponectin (UniProt Q15848)
Collagen V = Collagen V (UniProt P20908)
[1] = biological target: Collagen XVIII (NC1 domain) (UniProt P39060)
Collagen III = Collagen III (UniProt P02461)
Thrombospondin-1 (TSP-1) = Thrombospondin-1 (TSP-1) (UniProt P07996)
[2] = biological target: T2, Latent transforming growth factor β binding protein 1 (9-14 EGF-like domains) (UniProt Q14766)
T2 sequence: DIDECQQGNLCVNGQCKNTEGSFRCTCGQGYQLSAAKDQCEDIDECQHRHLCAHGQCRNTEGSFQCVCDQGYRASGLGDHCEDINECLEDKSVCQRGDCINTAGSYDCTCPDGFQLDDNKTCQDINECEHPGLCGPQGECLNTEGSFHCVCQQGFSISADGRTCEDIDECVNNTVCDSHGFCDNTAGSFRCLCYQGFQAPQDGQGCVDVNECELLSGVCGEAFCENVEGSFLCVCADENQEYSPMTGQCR

[3] = biological target: T3, Lysyl oxidase homolog 3 (LOXL3) (UniProt P58215)
T3 sequence: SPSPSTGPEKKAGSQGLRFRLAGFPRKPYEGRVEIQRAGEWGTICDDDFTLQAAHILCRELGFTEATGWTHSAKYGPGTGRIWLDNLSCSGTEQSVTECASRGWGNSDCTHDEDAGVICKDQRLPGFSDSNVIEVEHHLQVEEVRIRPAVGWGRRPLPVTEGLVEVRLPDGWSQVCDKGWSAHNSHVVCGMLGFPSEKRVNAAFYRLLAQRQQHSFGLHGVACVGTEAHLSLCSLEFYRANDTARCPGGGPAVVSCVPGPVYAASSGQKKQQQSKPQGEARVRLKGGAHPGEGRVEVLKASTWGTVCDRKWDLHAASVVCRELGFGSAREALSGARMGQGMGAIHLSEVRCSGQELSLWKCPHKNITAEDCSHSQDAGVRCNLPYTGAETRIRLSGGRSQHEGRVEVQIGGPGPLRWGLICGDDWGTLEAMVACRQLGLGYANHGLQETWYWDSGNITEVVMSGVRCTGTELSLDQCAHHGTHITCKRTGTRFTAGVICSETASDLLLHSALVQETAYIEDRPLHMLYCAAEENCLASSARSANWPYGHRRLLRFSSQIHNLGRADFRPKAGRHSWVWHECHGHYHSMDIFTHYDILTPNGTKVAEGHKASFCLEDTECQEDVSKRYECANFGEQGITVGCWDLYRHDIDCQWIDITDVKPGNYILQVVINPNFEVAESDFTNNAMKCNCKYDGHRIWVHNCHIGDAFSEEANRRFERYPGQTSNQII

[4] = biological target: Macrophage receptor MARCO (UniProt Q9UEW3)

Substance: Lysyl oxidase propeptide (LOX-PP) (Pro24Leu) (from UniProt P28300 22-168) (domain or fragment)
- binding (Lumican): no binding (tested: 2 µM)
- binding (Syndecan-1 ectodomain): no binding (tested: 2 µM)
- binding (Adiponectin): no binding (tested: 2 µM)
- binding (Collagen V): no binding (tested: 2 µM)
- binding [1]: no binding (tested: 2 µM)
- binding (Collagen III): no binding (tested: 2 µM)
- binding (Thrombospondin-1 (TSP-1)): no binding (tested: 2 µM)
- binding [2]: binds
- binding [3]: no binding (tested: 2 µM)
- binding [4]: no binding (tested: 2 µM)
